According to PubChem BioAssay AID1030 (National Center for Advancing Translational Sciences (NCATS), 2008):
The whole screen tested about 220,000 compounds, of which about 16,000 (7.3%) were called active. Inconclusive results, whose numbers are uncertain, are shown with a selection of clear calls. The call rests on the fitted dose curve; in most records, active means well fitted inhibition curve with a large enough effect (not every such curve was filed as active); inconclusive means small, poorly fitted or top-dose-only effect, or another doubt; inactive means no such curve, though single readings can be large or run the other way. Potencies of inconclusive entries are left out as doubtful fits.

target: Aldehyde dehydrogenase 1A1 (Homo sapiens) (UniProt P00352); assay: qHTS Assay for Inhibitors of Aldehyde Dehydrogenase 1 (ALDH1A1); conditions: Purified ALDH1A1, NADH fluorescence, propionaldehyde substrate; series mostly up to 75.3 µM;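 on activity, negative = inhibition: plate controls were no enzyme wells and a reference inhibitor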
UniProt P00352, sequence (P00352 whole entry, looked up): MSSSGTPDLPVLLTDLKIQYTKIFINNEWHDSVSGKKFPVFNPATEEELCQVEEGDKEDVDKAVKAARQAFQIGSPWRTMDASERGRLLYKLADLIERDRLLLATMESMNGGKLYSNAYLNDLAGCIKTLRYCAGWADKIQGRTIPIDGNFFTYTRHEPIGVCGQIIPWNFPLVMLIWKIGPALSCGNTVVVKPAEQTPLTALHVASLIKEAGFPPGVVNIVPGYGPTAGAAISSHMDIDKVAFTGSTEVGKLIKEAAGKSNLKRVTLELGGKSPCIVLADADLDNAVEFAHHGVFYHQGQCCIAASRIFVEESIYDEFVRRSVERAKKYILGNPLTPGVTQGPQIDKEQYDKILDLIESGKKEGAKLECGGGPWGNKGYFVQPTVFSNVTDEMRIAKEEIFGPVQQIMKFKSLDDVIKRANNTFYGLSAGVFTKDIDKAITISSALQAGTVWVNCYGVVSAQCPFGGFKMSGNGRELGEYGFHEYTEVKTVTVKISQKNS
Potency means the concentration at half of the fitted maximal effect; tags describe the fitted curve by direction and shape.

Row | Structure (SMILES) | activity, negative = inhibition | Potency
1 | C[C@@]12CC(=O)[C@@H]3[C@@H](CCC4=CC(=O)CC[C@]43C)[C@@H]1CC=C2CC(=O)O | inactive: 5.82% [at 13.5 µM] | –
2 | O=S(=O)(NC1CCCCC1)c1ccc(Cl)s1 | – | inconclusive [inhibitor, single point]
3 | COc1ccc(CNC(=O)/C=C/c2cc3c(cc2Br)OCO3)cc1 | – | inconclusive [inhibitor, partial curve]
4 | CCS(=O)(=O)c1ccc(O)c(NC(=O)COc2ccc(Br)cc2)c1 | – | inconclusive [inhibitor, single point]
5 | CN(C)c1ccc(/C=N/NC(=O)c2cc(-c3ccc4c(c3)OCO4)n[nH]2)cc1 | – | inconclusive [inhibitor, partial curve]
6 | CC1CC(C)CN(c2ccc(-n3cnnn3)cc2[N+](=O)[O-])C1 (stereo unspecified) | – | inconclusive [inhibitor, single point]
7 | COc1ccc(C(=O)CCNc2ccc(C)c(Cl)c2)cc1 | – | active: 3.16 µM
8 | Cc1ccccc1C(C(=O)NC1CCCCC1)N(C(=O)CNC(=O)c1ccco1)c1cccnc1 (stereo unspecified) | – | inactive
9 | O=c1c2c3c(sc2n(CCN2CCCC2)c(=O)n1Cc1ccco1)CCCCC3 | – | active: 5.01 µM
10 | COC(=O)c1[nH]c2cccc(OC)c2c1NC(=O)CCN1CCC(C(N)=O)CC1 | – | inconclusive [inhibitor, single point]
11 | COCCNC(=O)c1ccccc1NC(=O)Cc1ccccc1[N+](=O)[O-] | – | inconclusive [inhibitor, single point]
12 | Cc1ccc(-c2cc(C(F)F)n3ncc(C(=O)Nc4c(C)nn(Cc5c(Cl)cccc5Cl)c4C)c3n2)cc1 | – | inactive
13 | CCCn1[nH]cc(SC)c(=O)c1=O | – | active: 22.4 µM
14 | COc1ccc(Oc2cc(C(F)(F)F)cnc2C(N)=O)cc1 | – | inactive
15 | COc1cccc(-n2c(SCC(=O)NCCC3=CCCCC3)nc3n[nH]c(C)c3c2=N)c1 | – | active: 20 µM
16 | CCOC(=O)c1c(C)c(C(=O)NCCc2ccc(S(N)(=O)=O)cc2)c(C)n1CC | – | inconclusive [inhibitor, partial curve]
17 | Cc1ccc2nc(-c3ccc(NC(=O)C4CCCO4)cc3)[nH]c2c1 (stereo unspecified) | – | inconclusive [inhibitor, partial curve]
18 | O=C(CN1CCc2ccccc21)NC(=O)NCc1ccccc1 | – | active: 7.08 µM
19 | O=C(c1ccc(Cn2c(=S)[nH]c3ccc(N4CCOCC4)cc3c2=O)cc1)N1CCN(c2ccc(F)cc2)CC1 | – | inconclusive [inhibitor, single point]
20 | Fc1cnc(N2CCOCC2)nc1NCc1ccccc1 | – | inconclusive [inhibitor, single point]
21 | Cc1cc(C(F)F)n2nc(C(=O)Nc3sc4c(c3C(N)=O)CCC4)nc2n1 | – | active: 15.8 µM
22 | COc1cccc2cc(/C(C)=N/Nc3nc(-c4cc(C)ccc4C)cs3)c(=O)oc12 | – | inconclusive [inhibitor, single point]
23 | COc1ccc(OC)c(C(=O)C2COC(=O)C2)c1 (stereo unspecified) | – | inactive
24 | O=C1CC(c2ccc(F)cc2)Cc2nc(N3CCOCC3)ncc21 (stereo unspecified) | – | active: 28.2 µM

Row | Structure (SMILES) | activity, negative = inhibition | Potency
25 | CCS(=O)(=O)N1Cc2ccccc2CC1C(=O)N1CCN(c2cccc(C)c2C)CC1 (stereo unspecified) | – | inconclusive [inhibitor, single point]
26 | CCN(CC)C(=O)CSc1ncnc2c1nnn2-c1ccc(OC)cc1 | – | active: 3.98 µM
27 | Cn1c(-c2ccc3nc(N)sc3c2)nc2cc(N)ccc21 | – | inconclusive [inhibitor, single point]
28 | O=C(NC(=O)c1ccc(F)cc1)Nc1nc(-c2cccs2)cc(C(F)(F)F)n1 | – | inconclusive [inhibitor, partial curve]
29 | NC1=NC(=O)C(CC(=O)c2ccc(Cl)cc2)S1 (stereo unspecified) | – | inactive
30 | O=C(CNC(=O)c1cccc(Cl)c1)N/N=C/c1cccnc1 | – | inconclusive [inhibitor, partial curve]
31 | Cc1ccc(NC(=O)CSc2nnc(COc3ccccc3C)o2)cc1 | – | inactive
32 | Cn1c(N)c(C(=O)COC(=O)C2(c3cccc(F)c3)CCCC2)c(=O)n(C)c1=O | – | inconclusive [inhibitor, single point]
33 | CCSc1nnc(NC(=O)C2C3CCC(C3)C2C(=O)O)s1 (stereo unspecified) | – | inconclusive [inhibitor, single point]
34 | Cc1nn(CCCC(=O)NCc2ccc(Cl)cc2)c(C)c1[N+](=O)[O-] | – | inconclusive [inhibitor, single point]
35 | O=C(COC(=O)c1ccco1)Nc1ccc2c(c1)OCO2 | – | inconclusive [inhibitor, partial curve, poor fit]
36 | O=C(c1ccc(S(=O)(=O)N2CCCC2)cc1)N1CCN(Cc2ccc3c(c2)OCO3)CC1 | – | inconclusive [inhibitor, single point]
37 | COc1cccc(C2C(C(=O)Nc3ccccc3)=C(C)N=c3s/c(=C/c4ccc(OCC(=O)O)cc4)c(=O)n32)c1 (stereo unspecified) | – | inactive
38 | O=C(C[n+]1ccc(C(=O)NCc2ccccc2)cc1)c1ccc2c(c1)OCCO2 | – | active: 3.55 µM
39 | O=C1OCc2cccc3cccc1c23 | – | inconclusive [inhibitor, single point]
40 | COc1ccc(N2CCN(C(=O)CCNC(=O)c3ccc(C(C)(C)C)cc3)CC2)cc1 | – | inconclusive [inhibitor, partial curve]
41 | COCCNC(=O)c1ccccc1-c1nc(-c2ccccc2Cl)no1 | – | inconclusive [inhibitor, single point]
42 | COc1cccc2cc(-c3n[nH]c(=S)n3C)oc12 | – | inconclusive [inhibitor, single point]
43 | Cc1[nH]n(-c2ccccc2)c(=O)c1/C=N/N(C)c1ccccc1 | – | inconclusive [inhibitor, single point]
44 | COc1cccc(NC(=O)c2cn(C)c(=O)c3cc(OC)c(OC)cc23)c1 | – | inactive
45 | O=c1cc(CN2CCN(C/C=C/c3ccccc3)CC2)c2cc(O)ccc2o1 | – | active: 31.6 µM
46 | COC(=O)Cn1cc(/C=C/[N+](=O)[O-])c2ccccc21 | – | inconclusive [inhibitor, single point]
47 | COc1ccc(Oc2ccc(/C=C/C(=O)c3ccc(O)cc3)cc2[N+](=O)[O-])cc1 | – | inconclusive [inhibitor, single point]
48 | Cc1ccc2nc(-c3ccccc3)c(-c3ccccc3)nc2c1 | – | inconclusive [inhibitor, single point]

Row | Structure (SMILES) | activity, negative = inhibition | Potency
49 | NCCSC1CC(=O)N(Cc2ccc(F)cc2)C1=O (stereo unspecified) | – | active: 2.24 µM
50 | CC(NC(=O)c1cccc2ccccc12)c1ccc2c(c1)CCCC2 (stereo unspecified) | – | inconclusive [inhibitor, partial curve]
51 | CCOc1cc2c(C#N)c(N3CCNCC3)nc(N)c2c(N)n1 | – | inconclusive [inhibitor, partial curve]
52 | C=CCS(=O)(=O)c1cccc2cccnc12 | – | inconclusive [inhibitor, partial curve]
53 | CC1CCN(CC(=O)Nc2ccc(Br)cc2[N+](=O)[O-])CC1 | – | inactive
54 | CCN(CC)S(=O)(=O)c1ccc(/C=C/C(=O)Nc2ccc(F)cc2F)cc1 | – | active: 20 µM
55 | Nn1c(SCC(=O)NC2CCCCC2)nnc1C1CC1 | – | active: 23.8 µM
56 | C#CC1(O)CC(C)N(C)C(C)C1 (stereo unspecified) | – | inconclusive [inhibitor, single point]
57 | Cc1cc(C)c2nc(NNC(=O)c3ccc(S(=O)(=O)N4CCc5ccccc5C4)cc3)sc2c1 | – | inconclusive [inhibitor, single point]
58 | O=C1S/C(=C\c2ccc(N3CCOCC3)o2)C(=O)N1Cc1c(F)cccc1Cl | – | active: 0.126 µM
59 | COc1ccc(-c2cc(CNC(=O)CCl)on2)cc1 | – | inconclusive [inhibitor, single point]
60 | COc1ccccc1NC(=O)c1ccc(NC(=O)c2cc3c(s2)CCC3)cc1 | – | inconclusive [inhibitor, single point]
61 | CCOC(=O)c1c(NC(=S)Nc2ccc(Cl)cc2)sc2c1CCN(C)C2 | – | active: 25.1 µM
62 | O=S(=O)(c1cccc(-c2nc3ccccc3s2)c1)N1CCCC1 | – | inconclusive [inhibitor, partial curve]
63 | COc1cccc(CNC(=O)c2ccccc2N)c1 | – | inconclusive [inhibitor, partial curve]
64 | CCn1c(COc2ccccc2)nnc1SCc1ccc(C#N)cc1 | – | inactive
65 | OC(CNc1ccccc1)COc1ccc(OCC(O)CNc2ccccc2)cc1 (stereo unspecified) | – | inactive
66 | COc1cccc(-n2nnc3c(=O)n(Cc4ccccc4F)cnc32)c1 | – | inconclusive [inhibitor, partial curve]
67 | CC(C)(C)c1ccc(C(=O)NCC(=O)OCc2ccc([N+](=O)[O-])cc2)cc1 | – | inconclusive [inhibitor, partial curve]
68 | CCC(C)(C)NC(=S)Nc1ccc(-c2nc3ccc(C)cc3s2)cc1 | – | inconclusive [inhibitor, partial curve]
69 | Cc1csc(N/N=C/c2ccc(O)c([N+](=O)[O-])c2)n1 | – | inconclusive [inhibitor, single point]
70 | CCc1cc(=O)oc2cc(OCC(=O)OC)c(Cl)cc12 | – | inconclusive [inhibitor, single point]
71 | CCOC(=O)c1ccc(NC(=O)c2ccccc2C)cc1 | – | inconclusive [inhibitor, single point]
